Reference: patent publication US12564641B2 (EISAI R&D MANAGEMENT CO., LTD., priority 2019, dated 2026)

Experiments:
[1] = system: human NSCLC PDX LC-F-25; assay: Human NSCLC PDX model LC-F-25; assay type: in vivo, mouse
Experimental: Statistical analysis: Statistical analysis was performed for each measurement by a Mann-Whitney non-parametric comparison test. Each treated group was compared with the control group.

[2] = system: human gastric cancer NCI-N87 xenograft; assay: Human gastric cancer NCI-N87 xenograft model (Study M109-010-2018); assay type: in vivo, mouse; conditions: 10 mg/kg
[3] = Eribulin quantitation by LC-MS in plasma, tumor, and bone marrow (Example 9); assay type: in vivo, mouse; conditions: NCI-N87-tumor-bearing mice, single dose 10 mg/kg
Experimental: (§1) PK analysis was performed using both an intact ADC assay and a total antibody assay. Total antibody refers to the sum total of all species, including conjugated and unconjugated species (i.e., DAR0+DAR1+DAR2+ . . . +DARn), whereas intact ADC refers to all conjugated species (i.e., DAR1+DAR2+ . . . +DARn). Total antibody assay used biotinylated mesothelin for capture and AlexaFluor647-labelled anti-human Fc for detection. Intact ADC assay used biotinylated anti-eribulin 5E4 for capture and AlexaFluor647-labelled anti-human Fc for detection. Sample analysis was performed on a Gyros analyzer. Data analysis was performed in WatsonLIMS 7.4.1 and plotted in Microsoft Excel. Eribulin was quantitated using LC-MS from plasma, tumor, and bone marrow samples. 9.1.3 LC-MS

[4] = system: human mesothelioma PDX Meso7212; assay: Human mesothelioma PDX model Meso7212 (Example 3); conditions: Meso7212 (MV16071); single administration of 10 mg/kg
[5] = system: human mesothelioma PDX Meso7212; assay: Human mesothelioma PDX model Meso7212 (Example 17); assay type: in vivo, mouse; conditions: 10 mg/kg single dose i.v.
Experimental: Xenotransplantation: On day 0. Meso 7212 tumors were removed from the five donor mice under sterile conditions.
Experimental procedure: After the xenotransplantation, the engraftment and the propagation of the tumor in the mice were controlled at least twice weekly by palpation. When the tumor was palpable, the measurements of tumor diameters were performed with a digital caliper (Mitutoyo).
From the first treatment day onwards, tumor volumes and body weights were recorded twice weekly. The animal welfare was controlled twice daily.
Treatment: All agents were administered intravenously as a single dose on the day of randomization. Animals in the control group were treated with DPBS in the same manner.

[6] = system: human mesothelioma HAY xenograft; conditions: single dose 5 mg/kg
Experimental: Female CD-1 IGS mice (Charles River, 7-9 weeks old) were used for the maximum tolerated dose (MTD) study, female NOD.CB17-SCID mice (Jackson Laboratory) were used for the NCI-H2110 and HAY xenograft studies, and female NCr nude mice (Taconic, 5 weeks old) were used for the NCI-N87 xenograft studies. Upon arrival, animals were acclimated for 5-7 days prior to inoculation.
Cryopreserved NCI-H2110, NCI-N87, or HAY cells from frozen stocks were cultured in medium containing necessary supplements.
Mice were injected subcutaneously with 100 μL/mouse of cell mixture and monitored for body weight and tumor growth.
Mice were randomized to five mice per group once tumor implants reached an average volume of 100 mm^3. Treatment was given intravenously at a volume of 200 μL. Terminal body weight was measured and recorded at the end of each study.
Comparison of tumor growth within each experimental group was also performed using the same statistical analysis.

[7] = DAR of ADC in plasma samples by LC-MS (Example 9); assay type: in vivo, mouse
Experimental: Dynabeads M-280 streptavidin (100 μL) were incubated with 3 μg of capture select human IgG-Fc PK biotin conjugate for 1 hour at room temperature, then washed with HBS-EP buffer. […] Washed beads containing complex were deglycosylated with Rapid PNGaseF (1 μL) in PNGase buffer for 1 hour at 37° C., then washed once in HBS-EP buffer. […] Samples were analyzed for intact or reduced mass with Synapt G2/M-class UPLC analysis.

[8] = Pharmacokinetics (total antibody and intact ADC, Gyros) in NCI-N87 tumor-bearing mice (Example 9); assay type: in vivo, mouse; conditions: single dose 10 mg/kg
Experimental: as §1

[9] = system: human gastric cancer NCI-N87 xenograft; conditions: dose ranges from 5 mg/kg to 25 mg/kg
[10] = Pharmacokinetics (total antibody and intact ADC, Gyros) in NCI-N87 tumor-bearing mice, dose titration (Example 5); assay type: in vivo, mouse; conditions: 5 mg/kg to 25 mg/kg
Experimental: as §1, with “mesothelin for capture. Intact ADC” for “mesothelin for capture and AlexaFluor647-labelled anti-human Fc for detection. Intact ADC”, “anti-eribulin 5E4 Fab fragment for capture” for “anti-eribulin 5E4 for capture”, “Microsoft Excel.” for “Microsoft Excel. Eribulin was quantitated using LC-MS from plasma, tumor, and bone marrow samples. 9.1.3 LC-MS”

[11] = system: human mesothelioma PDX Meso7212; conditions: mouse, in vivo, 10 mg/kg
[12] = DAR-sensitive stability assay in human plasma (Gyrolab); assay type: in vitro ADME; conditions: 0.1 mg/mL, 37° C., up to 240 hours
Source text: All samples were thawed to ambient temperature and diluted 1:100 for testing. A DAR-sensitive stability assay was developed as stepwise sandwich format on Gyrolab. Assay used biotinylated mesothelin for capture after blocking and sample binding, and Alexa Fluor 647 anti-eribulin 5E4 Fab or Alexa Fluor 647 anti-DM4 (Levena Biopharma) for detection.

[13] = system: human ovarian cancer OVCAR-3-A1-T1 xenograft; assay: Human ovarian cancer OVCAR-3-A1-T1 xenograft model; assay type: in vivo, mouse; conditions: 5 mg/kg
Experimental: Animals: Female NOD.CB17-SCID mice (Jackson Laboratory).
100 μL/mouse of the mixture was injected subcutaneously. […] 3 times weekly, beginning on day 3 post-implantation.

B1: MORAb-109 (DAR2) (conjugate)
heavy: QVQLVESGGGVVQPGRSLRLSCAASGIDLSSYAMSWVRQAPGKGLEWIGVIDISGNRFYADWVKGRFTISRDNSKNTLYLQMSSLRAEDTAVYYCARVDSRAWGPFNLWGQGTLVTVSS[skipping human IgG1 constant region]
light: DYQMTQSPSSLSASVGDRVTITCQASQSIFSYLAWYQQKPGKAPKLLIYDASDLASGVPSRFSGSGSGTDFTLTISSLQCEDAATYYCQQGYTRSDVDNAFGGGTKVEIKRTVAAPSVFIFPPSDEQLKSGTASVVCLLNNFYPREAKVQWKVDNALQSGNSQESVTEQDSKDSTYSLSSTLTLSKADYEKHKVYACEVTHQGLSSPVTKSFNRGEC
modifications: non-natural residues
anti-tumor effect ([1]; 10 mg/kg single dose i.v.): tumor growth delay | tolerability / bodyweight ([1]; single dose of 10 mg/kg, intravenous): well tolerated without bodyweight loss | anti-tumor response ([2]; FIG. 13A): durable and similar anti-tumor responses | body weight change ([2]; FIG. 13B): little to no weight loss | AUC0-inf, Bone marrow ERI ([3]; eribulin in bone marrow): 9.9 µg·h/mL | T1/2, Bone marrow ERI ([3]; eribulin in bone marrow): 151 h | Tmax, Bone marrow ERI ([3]; eribulin in bone marrow): 1 h | AUC0-inf, Plasma ERI ([3]; eribulin in plasma): 0.044 µg·h/mL | Cmax, Plasma ERI ([3]; eribulin in plasma): 0.00065 µg/mL | T1/2, Plasma ERI ([3]; eribulin in plasma): 59 h | Tmax, Plasma ERI ([3]; eribulin in plasma): 0.17 h | AUC0-inf, Tumor ERI ([3]; eribulin in tumor): 17.8 µg·h/mL | Cmax, Tumor ERI ([3]; eribulin in tumor): 64 ng/g | T1/2, Tumor ERI ([3]; eribulin in tumor): 162 h | Tmax, Tumor ERI ([3]; eribulin in tumor): 24 h | anti-tumor response [4]: durable and comparable anti-tumor responses | anti-tumor effect [5]: tumor regression | anti-tumor response ([6]; FIG. 14A): durable and similar anti-tumor responses | body weight change ([6]; FIG. 14B): no body weight loss | Averaged DAR in plasma ([7]; 8 hours): 1.89 | DAR in plasma, individual mice 1-3 ([7]; 8 hours): 1.88 and 1.86 and 1.92 | Averaged DAR in plasma ([7]; 24 hours): 1.86 | DAR in plasma, individual mice 1-3 ([7]; 24 hours): 1.83 and 1.86 and 1.90 | Averaged DAR in plasma ([7]; 48 hours): 1.84 | DAR in plasma, individual mice 1-3 ([7]; 48 hours): 1.87 and 1.82 and 1.83 | Averaged DAR in plasma ([7]; 96 hours): 1.75 | DAR in plasma, individual mice 1-3 ([7]; 96 hours): 1.83 and 1.65 and 1.78 | Averaged DAR in plasma ([7]; 336 hours): 1.52 | DAR in plasma, individual mice 1-3 ([7]; 336 hours): 1.38 and 1.54 and 1.64 | Averaged DAR in plasma ([7]; 504 hours): 1.30 | DAR in plasma, individual mice 1-3 ([7]; 504 hours): 1.08 and 1.18 and 1.63 | AUC0-inf, ADC [8]: 14200 µg·h/mL | AUC0-inf, Total Ab [8]: 20900 µg·h/mL | CLtot, ADC [8]: 17 mL/day/kg | Cmax, Total Ab [8]: 137 µg/mL | T1/2, ADC [8]: 134 h | T1/2, Total Ab [8]: 191 h | Tmax, Total Ab [8]: 0.17 h | Vdss, ADC [8]: 0.121 L/kg | efficacy (dose-response) [9]: Dose-dependent efficacy | exposure of ADC (AUC) [10]: dose-dependent increases in AUC | body weight change [11]: No body weight loss | stability in human plasma [12]: more stable than BAY 94-9343 | anti-tumor effect [13]: tumor growth delay

Values joined by “and” are separate entries in the source; they are usually repeats but may differ in a detail not shown here. Equal values may be shown once.
